± gives the standard deviation of the averaged measurements. Some of the results follow.

The test system of this experiment is PfAP2-I AP2 domain 3 (GST-tagged). The experiment is described as follows: gcPBM binding intensity (ln(normalized median fluorescence intensity)); higher = stronger DNA binding. In a few lines: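 The binding buffer was 1× PBS containing 1% milk, 0.2 mg/ml BSA, 0.5% salmon testes DNA and 0.03% Triton X-100. In it, GST-tagged P. falciparum DNA-binding domains expressed in E. coli were applied for 1 h to an Agilent 4 × 180k array of primer-extended double-stranded 36-bp intergenic genomic probes plus negative controls. Binding intensity, read with Alexa488 anti-GST antibody and a 488 nm scan, is the highest Masliner-normalised natural-log median intensity across replicate spots of either probe orientation.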
Turning to “TTATATATTTTTAGGTGTACTTTTTTTTTTTTTTTT [XGTACX_site8164]”, the “gcPBM binding intensity (ln)” value was 8.79 ± 0.4. The value for “AAAAAAAAAAAAAATACACACATATTTTATAGGGGA [CACACA_site3261]” was 8.23 ± 0.45. Next, “TATTTTTTGAAAAGTTCACACATCCAACTCGAGTTG [CACACA_site4412]”: 7.61 ± 0.67; “AAAATAATGAAATGAAAAAAAAAAATTTAGATTCTA [CACACA_negctrl_site1385]”: 7.26 ± 0.84; “GTCATATATTTATGTACACACATATATATATTTATA [CACACA_site4911]”: 7.97 ± 0.26. The value for “TATTCTAAGATAAGTGGTACTTATATATAATATATA [XGTACX_site8316]” was 7.53 ± 0.38; that for TGGTATGCAATATTGGTGCGTATATATTTTAAAGGG was 9.91 ± 0.16.

Turning to “TATTTTTAATTTTTTAATGGTTTAATATTTTTATAT [CACACA_negctrl_site1186]”, the “gcPBM binding intensity (ln)” value was determined as 7.33 ± 0.52. For “ATATATATATATATATGTACATAAACATATATATAT [XGTACX_site1064]”, the “gcPBM binding intensity (ln)” value amounted to 9.47 ± 0.66.

Consider “TCTTTAGCTTCTTCTTTTTTTTTTTTTTTTTTTTTT [XGTACX_negctrl_site518]”, for which the “gcPBM binding intensity (ln)” value amounted to 9.615 ± 0.021. For the sequence “CATATGTTATATGTAGTGCATTACTATAGGATTTAT [GTGCAC_site9860]”, the “gcPBM binding intensity (ln)” value worked out at 11.4 ± 0.64. The value for “TATTTTGCAAAATGTGCATGTTGTGTATTATGTGAC [TGCATGCA_site59]” was 8.97 ± 0.51. Next, “TATAATATACTATGTGGTACATATATATATTTATAG [XGTACX_site4556]”: 7.51 ± 0.22; “ATATATAATATTGGTGGTACAAGGGTATTTTATATT [XGTACX_site8215]”: 8.04 ± 0.52; “GTATAATTGGAAATTACACACCTTAGAATGTAACAT [CACACA_site4059]”: 7.59 ± 0.46. Next, “ATTATAATATATATATGTACATATATATATAATACT [XGTACX_site5092]”: 7.79 ± 0.29; “TCATTTATTTTTCTTTGTACACAAAAGTTTTTATGT [XGTACX_site690]”: 7.98 ± 0.54; “TTCAAAAAATATATCTGTACAAATTATGTAGATGAA [XGTACX_site5522]”: 7.72 ± 0.47. In the case of “TTTTTTTTTTTTTTTTTTTTACGATATATTTTAAAA [XGTACX_negctrl_site401]”, the “gcPBM binding intensity (ln)” value came out at 8.11 ± 0.69.

With “TTTTTACTTATTTATTATGTACAATTTCTTCTTTCT [CACACA_negctrl_site264]”, the “gcPBM binding intensity (ln)” value is 7.63 ± 0.76. The value for “TAGATCATAACAATTGCACACATTTGCATTTATATT [CACACA_site1562]” was 8.88 ± 0.52; that for “AATGTACGCATATACACACACATAAATAGATACGTA [CACACA_site3406]” was 8.01 ± 0.23; that for “AATAGTTAAATACATACATGCATTCATATAATATAT [TGCATGCA_site433]” was 7.91 ± 0.54. Next, “TAATTAAGAATATATAGTACATAGTTGAAAAACTTT [XGTACX_site6359]”: 7.71 ± 0.54; “AAGATAAAAATATGCACACATATATATATATATATA [CACACA_site404]”: 9.51 ± 0.18.

On to “AACGAAAACACTACGTGTACCAAACGTCCTACCAAC [XGTACX_site257]”, for which the “gcPBM binding intensity (ln)” value came to 7.66 ± 0.7.

“CCTTTTTATTTTTGTAGTACTACATATACATATCTG [XGTACX_site7791]”: the “gcPBM binding intensity (ln)” value was determined as 8.45 ± 0.52. Next, “AAAAAAAAAAAAAATAAATAAATAAATAAATATATA [GTGCAC_negctrl_site382]”: 7.64 ± 0.31; “GGTGTTTTTCACAGATGTACACAAATAAAAAAGAAA [XGTACX_site4454]”: 8.39 ± 0.47; “TATATATAAAAAAAAAGTACATATAATATAATATTT [XGTACX_site7902]”: 7.73 ± 0.34.

For the sequence “AAATGGACAGTATAAAAATGGAGAATATAAAAATTT [CACACA_negctrl_site889]”, the “gcPBM binding intensity (ln)” value came to 7.78 ± 0.83. Next, “TATTCAAAGAAAAACTGTACGTGTAGCAAACGTCAT [XGTACX_site7713]”: 7.96 ± 0.43; “ATATTAAAAAAATATAAACACACAAAAAAAAAATAT [CACACA_site8283]”: 7.89 ± 0.56. “GACCCCATATACATATGTACATACATAATATATATA [XGTACX_site1817]”: the “gcPBM binding intensity (ln)” value came to 8.45 ± 0.45. Next, “TTTTTATAACAGCTTAGTACATATAAGAATTCTTGC [XGTACX_site5890]”: 7.74 ± 0.44. Regarding “TTTGTTGGTATGGTTACACACATTTAGGAAATAAAA [CACACA_site1411]”, the “gcPBM binding intensity (ln)” value was determined as 7.79 ± 0.61. Next, “TCTTATAAATTAAATATAAAAAAAAAAAAAAAAAAA [XGTACX_negctrl_site77]”: 7.94 ± 0.61. The value for “AGTATTTTGTTTATCACACATATTGGAATTTTCAAT [CACACA_site4686]” was 7.92 ± 0.66; that for “AAAATTATACACACACGTACATATAAATAGAAATAT [XGTACX_site1753]” was 8.15 ± 0.26. Turning to “AAAATAATTCAATGTAGTACAATACAAATTGAGAGA [XGTACX_site5991]”, the “gcPBM binding intensity (ln)” value turned out to be 7.78 ± 0.38.

In the case of “TTAATTTCGAATTATTGTACATTAATATATCTACAG [XGTACX_site3314]”, the “gcPBM binding intensity (ln)” value is 7.58 ± 0.46.

For “AAAACAAATAGACACGCACACAAAAAAAAAAAAAAA [CACACA_site801]”, the “gcPBM binding intensity (ln)” value was 8.18 ± 0.49.

In the case of “GAATAAAAAAAAAAAAAAATTTATTTTATAATAAAA [CACACA_negctrl_site1514]”, the “gcPBM binding intensity (ln)” value was determined as 7.24 ± 0.49. As to “ATATATATATATATATGTACATAAATATAAATTTAA [XGTACX_site8715]”, the “gcPBM binding intensity (ln)” value was determined as 9.5 ± 0.67. The value for “ATGCAATAATAATGGAGTACATATTAATATTGATCA [XGTACX_site2312]” was 7.97 ± 0.45; that for “AAAAAATATATTAAGGCACACACATACATATATATA [CACACA_site9239]” was 9.675 ± 0.035. Next, “CCTTTTGGATGAAAGTGTACAGGTGAGAAAAATTCC [XGTACX_site3358]”: 8.07 ± 0.54. Next, “AATGTAAAGAACAAAACATGCAACTAGTTTACTTTT [TGCATGCA_site841]”: 7.58 ± 0.71; “TAATTCTTTATTTTTCGTACGTAAAACAAAAAATAT [XGTACX_site862]”: 7.85 ± 0.17; “TAAGTATATAAAATTACACACTATTTTTTTTCAAGT [CACACA_site1792]”: 7.45 ± 0.5. As for “TAGAAAAAAGATAGCACACACGGCCCAATATATATA [CACACA_site5354]”, the “gcPBM binding intensity (ln)” value is 8.37 ± 0.73. The value for TCGAATATCTTATAGGTGCATCATAAATACATATGT was 10.3 ± 0.31; that for “CGCAAAACAATGATACGTACATATATATATATATAT [XGTACX_site5883]” was 9.46 ± 0.56. The value for “ATATTCTCTTAAATATGTACGTATGTATATATATAT [XGTACX_site5885]” was 9.145 ± 0.049. Next, “ATTCTTAAATGTGGTTGTACATATTATCACCTTTAA [XGTACX_site8188]”: 7.86 ± 0.46. Turning to “TTTTTAATTTTATATACACACATAAAAGATATGAAG [CACACA_site7470]”, the “gcPBM binding intensity (ln)” value came out at 7.67 ± 0.47. Next, “AAGAAAATGTAGAATTAGAAATAAATGAAGAAATGA [TGCATGCA_negctrl_site548]”: 7.88 ± 0.62.

The values above are taken from the supplement of paper PMC11417369.
